Molecular target: T1, MMP-2 (Homo sapiens, UniProt P08253)
T1 construct: purchased Anaspec
T1 sequence (P08253 110-660): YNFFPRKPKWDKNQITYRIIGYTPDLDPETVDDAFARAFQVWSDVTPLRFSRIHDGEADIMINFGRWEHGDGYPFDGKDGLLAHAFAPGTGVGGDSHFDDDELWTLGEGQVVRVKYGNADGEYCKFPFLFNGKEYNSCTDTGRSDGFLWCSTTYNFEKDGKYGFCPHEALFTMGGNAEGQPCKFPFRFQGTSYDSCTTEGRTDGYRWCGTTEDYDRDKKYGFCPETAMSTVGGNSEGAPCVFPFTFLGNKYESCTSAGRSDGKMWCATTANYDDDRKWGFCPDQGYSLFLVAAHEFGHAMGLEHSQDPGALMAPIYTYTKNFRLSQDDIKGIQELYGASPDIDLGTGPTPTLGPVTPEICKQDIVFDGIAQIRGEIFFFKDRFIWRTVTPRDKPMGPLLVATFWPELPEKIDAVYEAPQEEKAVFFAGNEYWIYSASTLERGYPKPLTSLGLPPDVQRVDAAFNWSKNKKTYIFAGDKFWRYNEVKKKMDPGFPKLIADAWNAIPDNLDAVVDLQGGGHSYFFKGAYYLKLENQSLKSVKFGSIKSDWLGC
Assay: Purified MMP-2 sensor detecting activated MMP-2 (Bright-Glo luminescence)
Assay type: biochemical
Details: 37° C. for 1 hr
Experimental: The MMP-2 sensor (SEQ ID NOs:69 and 70) used herein contains the 1A5 variant backbone and the human MMP-2 recognition site, PLGMWSR (SEQ ID NO:75). In addition, the MMP-2 sensor contains two purification tags: a GST tag on the N-terminus of the sensor that is separated from the sensor region by a TEV protease site (for removal of the GST tag from the purified MMP-2 sensor) and a 5×HQ (HQHQHQHQHQ; SEQ ID NO:79) tag on the C-terminus of the sensor.
Activated MMP-2 (10 ng/μL; Anaspec) was added to the diluted MMP-2 sensor as described in FIG. 15. Total volume of the final reaction mixture was 50 μL. The mixture was incubated at 37° C. for 1 hr. Bright-Glo Assay Reagent (Promega) was prepared according to the manufacturer's instructions, and 50 μL added to the mixture. Luminescence was read immediately on a GloMax MultiPlus luminometer.
FIG. 15 presents the fold increase over control (background from MMP-2 sensor).

amount of MMP-2 protein detected (as little as): 0.75 ng
B1: MMP-2 sensor: 1A5 variant backbone with human MMP-2 recognition site PLGMWSR, GST and 5×HQ tags (SEQ ID NOs:69 and 70) (protein)
chain: [sequence of about 200 residues omitted]SGGGGGENLYFQAIAMPGSTGKIVPLHAVKVVDPTTGKILGPNEPGELYFKGPMIMKGYYNNEEATKAIIDNDGWLRSGDIAYYDNDGHFYIVDRLKSLIKYKGYQVAPAEIEGILLQHPYIVDAGVTGIPDEAAGELPAAGVVVQTGKYLNEQIVQDYVASQVSIAKWLRGGVKFLDEIPKGSTGKIDRKVLRQMLEKHTNGSPLGMWSRSLKNILYGPEPFYPLEDGTAGEQMFDALSRYAAIPGCIALTNAHTKENVLYEEFLKLSCRLAESFKKYGLKQNDTIAVCSENSLQFFLPVIASLYLGIIVAPVNDKYIERELIHSLGIVKPRIVFCSKNTFQKVLNVKSKLKSIETIIILDLNEDLGGYQCLNNFISQNSDSNLDVKKFKPYSFNRDDQVASIMFSSGTTGLPKGVMLTHKNIVARFSIAKDPTFGNAINPTSAILTVIPFHHGFGMMTTLGYFTCGFRVVLMHTFEEKLFLQSLQDYKVESTLLVPTLMAFLAKSALVEKYDLSHLKEIASGGAPLSKEIGEMVKKRFKLNFVRQGYGLTETTSAVLITPKGVSHQHQHQHQHQ
